{
  "source": "PubChem BioAssay AID1508642",
  "about": "(National Center for Advancing Translational Sciences (NCATS), 2021)",
  "note": "The whole screen tested about 43,000 compounds, of which about 200 (0.47%) were called active. Not shown: some 12% with an inconclusive outcome. The call rests on the fitted dose curve; in most records, active means well fitted cell-killing curve with a large enough effect; inconclusive means small, poorly fitted or top-dose-only effect, or effect the other way; inactive means flat fitted curve, though single readings scatter. Some of the results follow. On the % scale 0 is the no-effect control and ±100 the full control effect.",
  "data": [
    {"assay": "Cell viability qHTS assay in S16 Pmp22-F2sN cells; further: nearly all actives have a fitted effect of over 65% in size", "conditions": "S16 Pmp22-F2sN Schwann cells viability, CellTiter-Glo, 24 h; series mostly up to 57.5 µM; activity change, negative = cytotoxicity: at the top concentration", "in_short": "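Viability was measured by CellTiter-Glo luminescence (15 min, room temperature). This followed 24 h at 37 °C of compound exposure (23 nL pin transfer) in S16 Pmp22-F2sN Schwann cells, 500-1,000 per well.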", "values": [
      {"smiles": "CCCCN(C)C(=O)C(Cc1ccccc1)NS(=O)(=O)c1ccc2c(c1)c(=O)n(C)c(=O)n2C", "note": "(stereo unspecified)", "activity change, negative = cytotoxicity": "inactive: 0.188%"},
      {"smiles": "COc1ccc(-c2nnc(SCC(=O)Oc3c(C)cccc3C)o2)cc1OC", "activity change, negative = cytotoxicity": "inactive: 0.0992%"},
      {"smiles": "Cc1oc(-c2cccc(Cl)c2)nc1CN1CCCC(C(=O)NCc2ccc(F)cc2)C1", "note": "(stereo unspecified)", "activity change, negative = cytotoxicity": "inactive: -16.3%"},
      {"smiles": "CC(C)OCCCNC(=O)c1ccc2c(=O)n(CCc3ccccc3)c(=O)[nH]c2c1", "activity change, negative = cytotoxicity": "inactive: 3.34%"},
      {"smiles": "Cc1coc2c1c(C)cc1oc(=O)cc(C)c12", "activity change, negative = cytotoxicity": "inactive: -14.9%"},
      {"smiles": "COc1ccc(N(CC(=O)NCc2ccc(F)cc2)S(=O)(=O)c2c(C)n[nH]c2C)cc1", "activity change, negative = cytotoxicity": "inactive: 2.53%"},
      {"smiles": "COc1ccc(OCCCn2c(=O)oc3ccc(C)cc32)cc1", "activity change, negative = cytotoxicity": "inactive: 8.14%"},
      {"smiles": "CCc1ccc(NC(=O)c2ccc(F)c(S(=O)(=O)N3CCC(C)CC3)c2)cc1", "activity change, negative = cytotoxicity": "inactive: 0.19%"},
      {"smiles": "COc1cc2c(cc1NS(=O)(=O)c1cccc(C#N)c1)n(C)c(=O)n2C", "activity change, negative = cytotoxicity": "inactive: 1.44%"},
      {"smiles": "Cc1cc(C)cc(NC(=O)CN2C(=O)c3ccccc3Sc3ccc(C(=O)N4CCOCC4)cc32)c1", "activity change, negative = cytotoxicity": "inactive: 16.2%"},
      {"smiles": "Cc1ccc(C)c(Cn2nnc(C(=O)NCc3ccc(Cl)cc3Cl)c2N)c1", "activity change, negative = cytotoxicity": "inactive: -0.289%"},
      {"smiles": "Cc1cn(C)c(CC(=O)Nc2cccc(Cl)c2C)c1C(=O)O", "activity change, negative = cytotoxicity": "inactive: 1.31%"},
      {"smiles": "CCCCNS(=O)(=O)c1ccc2nc(NC(=O)c3cccnc3)sc2c1", "activity change, negative = cytotoxicity": "inactive: -24.1%"},
      {"smiles": "Cc1ccc(CNC(=O)c2ccc(CSCc3ccc(Cl)cc3)o2)cc1", "activity change, negative = cytotoxicity": "inactive: 0.166%"},
      {"smiles": "O=C(Nc1cc(C(F)(F)F)ccc1Cl)c1cc2nc(-c3ccc4c(c3)OCO4)cc(C(F)(F)F)n2n1", "activity change, negative = cytotoxicity": "inactive: -4.54%"},
      {"smiles": "Cn1c(=O)oc2cc(S(=O)(=O)N3CCCC(C(=O)Nc4ccc(Br)cc4F)C3)ccc21", "note": "(stereo unspecified)", "activity change, negative = cytotoxicity": "inactive: 14.7%"},
      {"smiles": "CCOc1ccccc1C(=O)Nc1c(NC)c2ccccc2oc1=O", "activity change, negative = cytotoxicity": "inactive: 2.02%"},
      {"smiles": "O=C(NCc1cccc(F)c1)C1=Cc2cc(Br)ccc2OC1", "activity change, negative = cytotoxicity": "inactive: 3.05%"},
      {"smiles": "Cc1ccc(-n2ccnc(NCc3ccccc3)c2=O)cc1C", "activity change, negative = cytotoxicity": "inactive: -11.7%"},
      {"smiles": "CCCCN(Cc1ccccc1)C(=O)c1oc(=O)c2ccccc2c1-c1ccc(C)cc1", "activity change, negative = cytotoxicity": "inactive: -18.4%"},
      {"smiles": "CCn1c(C(=O)N2CCC(C(=O)NCCc3ccccc3)CC2)cc2sccc21", "activity change, negative = cytotoxicity": "inactive: 4.85%"},
      {"smiles": "CCC(Sc1nnc(-c2ccc(OC)cc2)c(-c2ccc(OC)cc2)n1)C(=O)NC1CCCCC1", "note": "(stereo unspecified)", "activity change, negative = cytotoxicity": "inactive: 2.68%"},
      {"smiles": "Cc1ccc(-n2c3nc(=O)n(C)c(=O)c-3cc3c(Cl)cccc32)c(C)c1", "activity change, negative = cytotoxicity": "inactive: -2.08%"},
      {"smiles": "Cc1ccc(NS(=O)(=O)c2ccc(NC(=O)N3CCCC3)cc2)cc1C", "activity change, negative = cytotoxicity": "inactive: -1.63%"},
      {"smiles": "COc1cccc(N2CC(NC(=O)/C=C\\c3ccc4c(c3)OCO4)CC2=O)c1", "note": "(stereo unspecified)", "activity change, negative = cytotoxicity": "inactive: 5.77%"},
      {"smiles": "COc1ccc(N2CC(NC(=O)c3ccc(S(=O)(=O)N4CCCC4)cc3)CC2=O)cc1", "note": "(stereo unspecified)", "activity change, negative = cytotoxicity": "inactive: 3.29%"},
      {"smiles": "CCOC(=O)c1ccc(NC(=O)C(CC)Sc2nc3ncccc3[nH]2)cc1", "note": "(stereo unspecified)", "activity change, negative = cytotoxicity": "inactive: 1.1%"},
      {"smiles": "COc1ccc(-n2nc(C(=O)N3CCN(c4ccccc4OC)CC3)c3c4ccccc4n(C)c3c2=O)cc1", "activity change, negative = cytotoxicity": "inactive: 9.8%"},
      {"smiles": "COc1cccc(CNC(=O)c2ccc(Cn3c(SCc4ccccc4)nc4cccnc43)cc2)c1", "activity change, negative = cytotoxicity": "inactive: -29.3%"},
      {"smiles": "COc1cc(Cl)ccc1Nc1ncc(C(=O)N2CCN(c3ccccc3OC)CC2)c2ccccc12", "activity change, negative = cytotoxicity": "inactive: 19.7%"},
      {"smiles": "Cc1ccc(C(=O)N2CCC(c3c[nH]c4ccccc34)(c3c[nH]c4ccccc34)CC2)cc1", "activity change, negative = cytotoxicity": "inactive: -2.25%"},
      {"smiles": "Cn1nccc1C(=O)NCc1ccc2c(c1)CCN2C(=O)c1ccc(F)cc1", "activity change, negative = cytotoxicity": "inactive: 8.14%"},
      {"smiles": "COc1cc(NC(=O)CCc2c(C)nc3nc(-c4cc(OC)cc(OC)c4)nn3c2C)cc(OC)c1", "activity change, negative = cytotoxicity": "inactive: 1.83%"},
      {"smiles": "Cc1nc2ccccc2n1CC(O)COc1ccc(C(=O)O)cc1", "note": "(stereo unspecified)", "activity change, negative = cytotoxicity": "inactive: -0.0787%"},
      {"smiles": "O=C(CSc1nc(-c2ccccc2)nc2c1CCCC2)c1ccc(F)cc1", "activity change, negative = cytotoxicity": "inactive: 12.2%"},
      {"smiles": "CCC(=O)N1c2ccc(S(=O)(=O)NCc3cccc(OC)c3)cc2CC1C", "note": "(stereo unspecified)", "activity change, negative = cytotoxicity": "inactive: 5.45%"},
      {"smiles": "Cc1ccc(S(=O)(=O)c2nc(-c3ccco3)oc2SC(C)c2ccccc2)cc1", "note": "(stereo unspecified)", "activity change, negative = cytotoxicity": "inactive: -3.14%"},
      {"smiles": "Nc1c(-c2nc(-c3ccc(Cl)cc3)no2)nnn1-c1ccc(C(F)(F)F)c(Cl)c1", "activity change, negative = cytotoxicity": "inactive: -0.0859%"},
      {"smiles": "COc1cc(NC(=O)c2cc(C3CC3)nc3c2c(C)nn3-c2ccc(C)cc2)cc(OC)c1", "activity change, negative = cytotoxicity": "inactive: -9.5%"},
      {"smiles": "Cc1cccc(C)c1OCc1nc2c3cnn(-c4ccccc4Br)c3ncn2n1", "activity change, negative = cytotoxicity": "inactive: 6.05%"},
      {"smiles": "O=C(CSc1nc2c([nH]c3ccccc32)c(=O)n1-c1ccc(F)cc1)N1CCCc2ccccc21", "activity change, negative = cytotoxicity": "inactive: 17.8%"},
      {"smiles": "CCOC(=O)Cn1c(=O)n(C2CCCCC2)c2nc(-c3ccccc3Cl)nc(C(N)=O)c21", "activity change, negative = cytotoxicity": "inactive: 23.1%"},
      {"smiles": "CCC(CC)C(=O)Nc1nnc2n1CCS2", "activity change, negative = cytotoxicity": "inactive: 1.62%"},
      {"smiles": "CCOC(=O)CC(NC(=O)c1cc2c(=O)n3cccc(C)c3nc2s1)c1ccc(OCC(C)C)c(OC)c1", "note": "(stereo unspecified)", "activity change, negative = cytotoxicity": "inactive: 1.43%"},
      {"smiles": "COc1ccc(CCN2C(=O)c3[nH]nc(-c4ccccc4O)c3C2c2ccc(O)c(OC)c2)cc1", "note": "(stereo unspecified)", "activity change, negative = cytotoxicity": "inactive: -20.3%"},
      {"smiles": "COc1ccc(-c2c(C)nn3c(-c4ccccc4)cc(-c4ccccc4)nc23)cc1OC", "activity change, negative = cytotoxicity": "inactive: 3.11%"},
      {"smiles": "O=C(NC1CCCCC1)c1cc(Nc2ccccc2)nc2ccccc12", "activity change, negative = cytotoxicity": "inactive: 3.12%"},
      {"smiles": "COC(=O)c1ccc(NC(=O)CCNS(=O)(=O)c2cccc3nsnc23)cc1", "activity change, negative = cytotoxicity": "inactive: -1.01%"},
      {"smiles": "O=C(Cn1c(=O)n(-c2ccccc2)c(=O)c2c3c(sc21)CCCC3)Nc1cccc(F)c1", "activity change, negative = cytotoxicity": "inactive: 18.4%"},
      {"smiles": "COc1cccc(Cc2nc3ccccc3nc2SCC(=O)Nc2ccccc2F)c1", "activity change, negative = cytotoxicity": "inactive: -19.4%"},
      {"smiles": "CN(C)c1ccc(CNC(=O)c2ccc(NC(=O)c3nsc4ccccc34)cc2)cc1", "activity change, negative = cytotoxicity": "inactive: 3.55%"},
      {"smiles": "CC(C)C1N=C2c3ccccc3N=C(SCC(=O)NCc3ccc(F)cc3)N2C1=O", "note": "(stereo unspecified)", "activity change, negative = cytotoxicity": "inactive: 3.46%"},
      {"smiles": "Cc1cccc(NC(=O)Cn2c(=O)n(CCc3ccccc3)c(=O)c3sc4ccccc4c32)c1", "activity change, negative = cytotoxicity": "inactive: -0.0906%"},
      {"smiles": "CCC12CN3CC(C)(CN(C1)C3c1c(C)n(C)c3ccccc13)C2=O", "note": "(stereo unspecified)", "activity change, negative = cytotoxicity": "inactive: -1.02%"},
      {"smiles": "Cc1cccc(CNC(=O)c2ccc3nc(-c4ccccc4)c(-c4ccccc4)nc3c2)c1", "activity change, negative = cytotoxicity": "inactive: 16.1%"},
      {"smiles": "Cc1c(C(=O)NCc2ccccc2Cl)cccc1-n1cnc2cccnc21", "activity change, negative = cytotoxicity": "inactive: -0.816%"},
      {"smiles": "CCN(CC)S(=O)(=O)c1nnc(NC(=O)COc2cccc(C)c2)s1", "activity change, negative = cytotoxicity": "inactive: 2.61%"},
      {"smiles": "Cn1cnc(S(=O)(=O)N2CCCC(C(=O)Nc3cccc(C#N)c3)C2)c1", "note": "(stereo unspecified)", "activity change, negative = cytotoxicity": "inactive: 18.7%"},
      {"smiles": "Cc1ccc(CNCc2c(C(=O)O)c(C)n(Cc3ccc(C)cc3)c2C)cc1", "activity change, negative = cytotoxicity": "inactive: 15.5%"},
      {"smiles": "O=C(Nc1c(C(=O)c2ccc(F)cc2)oc2ccccc12)c1cc(-c2ccccc2)on1", "activity change, negative = cytotoxicity": "inactive: 0.396%"},
      {"smiles": "CCOc1ccc(CNC(=O)c2ccc3nc(CC)c(CC)nc3c2)cc1OC", "activity change, negative = cytotoxicity": "inactive: -5.96%"}
    ]}
  ]
}
